Patent publication US20190218277A1 (Chugai, published 2019)

Key:
[1] = target: T1, human FcγRIa (human, UniProt P12314 16-292); assay: SPR (Biacore T200, pH 7.4, 25 °C): His-tagged FcγR captured by anti-His antibody; antibody injected at 100 nM alone (Ab alone) or as 1:1 complex with trimeric CD154 (CD154 IC); binding level / capture level [A]
T1 construct: also called human FcγR1a

[2] = target: T2, human FcγRIIIa (158V) (human, UniProt P08637 in part); assay: SPR (Biacore T200, pH 7.4, 25 °C): His-tagged FcγR captured by anti-His antibody; antibody injected at 100 nM alone (Ab alone) or as 1:1 complex with trimeric CD154 (CD154 IC); binding level / capture level [F]
T2 construct: also called human FcγR3a allelic variant 158V

[3] = target: T3, mouse FcγRIV (mouse, UniProt A0A0B4J1G0 21-203); assay: SPR (Biacore T200, pH 7.4, 25 °C): His-tagged FcγR captured by anti-His antibody; antibody injected at 100 nM alone (Ab alone) or as 1:1 complex with trimeric CD154 (CD154 IC); binding level / capture level [D]
T3 construct: also called mFcγRIV; mouse FcγR4
T3 sequence: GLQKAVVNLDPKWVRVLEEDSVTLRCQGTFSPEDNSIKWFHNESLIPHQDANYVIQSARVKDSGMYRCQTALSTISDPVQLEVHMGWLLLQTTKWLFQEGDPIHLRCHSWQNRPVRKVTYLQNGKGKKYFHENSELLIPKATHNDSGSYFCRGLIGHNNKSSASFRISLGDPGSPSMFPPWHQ

[4] = target: T4, human FcγRIIIa (158F) (human, UniProt P08637 in part); assay: SPR (Biacore T200, pH 7.4, 25 °C): His-tagged FcγR captured by anti-His antibody; antibody injected at 100 nM alone (Ab alone) or as 1:1 complex with trimeric CD154 (CD154 IC); binding level / capture level [E]
T4 construct: also called human FcγR3a allelic variant 158F

Measured: binding result

T1 sequence (P12314 16-292 limits assumed): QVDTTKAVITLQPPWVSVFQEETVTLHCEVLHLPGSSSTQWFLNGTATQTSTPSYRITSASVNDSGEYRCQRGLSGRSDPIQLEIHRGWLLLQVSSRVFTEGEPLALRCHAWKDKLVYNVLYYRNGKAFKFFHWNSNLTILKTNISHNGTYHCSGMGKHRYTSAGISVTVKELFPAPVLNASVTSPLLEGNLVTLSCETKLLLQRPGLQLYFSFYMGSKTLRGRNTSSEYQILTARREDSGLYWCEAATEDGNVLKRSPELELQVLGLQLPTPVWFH

B1: Anti-CD154 antibody (SLAPH0336a/SLAPL0336a) with Fc variant KAES (SG1109) (antibody, human IgG1, kappa)
heavy: EVQLVESGGGSVKPGGSLKLSCAASGFTFSDHYMYWVRQTPEKRLEWVAIISGGGSYTSYPDSMKGRFTISRDNAKNILHLQMSSLKSEDTAMYYCTRESNGKPGFAYWGQGTLVTVSAASTKGPSVFPLAPSSKSTSGGTAALGCLVKDYFPEPVTVSWNSGALTSGVHTFPAVLQSSGLYSLSSVVTVPSSSLGTQTYICNVNHKPSNTKVDKRV[human IgG1 Fc with K326A E333S (EU numbers) omitted here]
light: DIELTQSPTSLAVSLGQRATISCKASQSVDYAGDSYMNWYQQKPGQPPKLLIYAASNLESGIPARFSASGSGTDFTLNIHPVEEEDAATYYCQQSYEDPWTFGGGTKLEIKRTVAAPSVFIFPPSDEQLKSGTASVVCLLNNFYPREAKVQWKVDNALQSGNSQESVTEQDSKDSTYSLSSTLTLSKADYEKHKVYACEVTHQGLSSPVTKSFNRGEC
binds: all assays above

B2: Anti-CD154 antibody (SLAPH0336a/SLAPL0336a) with Fc variant KWES (SG1085) (antibody, human IgG1, kappa)
heavy: EVQLVESGGGSVKPGGSLKLSCAASGFTFSDHYMYWVRQTPEKRLEWVAIISGGGSYTSYPDSMKGRFTISRDNAKNILHLQMSSLKSEDTAMYYCTRESNGKPGFAYWGQGTLVTVSAASTKGPSVFPLAPSSKSTSGGTAALGCLVKDYFPEPVTVSWNSGALTSGVHTFPAVLQSSGLYSLSSVVTVPSSSLGTQTYICNVNHKPSNTKVDKRV[human IgG1 Fc with K326W E333S (EU numbers) omitted here]
light: B1 light
binds: all assays above
